This is one part of the list.
Tested on: PfSIP2 AP2 domain 1 (GST-tagged)
Experiment: gcPBM binding intensity (ln(normalized median fluorescence intensity)); higher = stronger DNA binding
Method in brief: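 Binding intensity is defined as the maximum Masliner-normalised natural-log median intensity across replicate spots for either probe orientation. It was measured on an Agilent 4 × 180k array of primer-extended double-stranded 36-bp intergenic genomic probes and negative controls, to which GST-tagged P. falciparum DNA-binding domains made in E. coli were applied for 1 h in 1× PBS with 1% milk, 0.2 mg/ml BSA, 0.5% salmon testes DNA and 0.03% Triton X-100. Detection was by Alexa488 anti-GST antibody and scanning at 488 nm.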

Compared with “GGAAAGACATTACACAGTACCCAGGAAATCTACGGA [XGTACX_site2002]”, “TCAACATTTAAAAATAGTACTCATAAACCTTTCGAA [XGTACX_site4111]” is higher in “gcPBM binding intensity (ln)” value: 6.65 for the first, 6.7 for the second.

Compared with “ATTATATATGTATAAATATGCTATATATATATATAT [GTGCAC_negctrl_site430]”, “ATAAATAAAAAACACACACACACACCCAAAAAAAAA [CACACA_site2624]” is lower in “gcPBM binding intensity (ln)” value: 9.4 for the first, 7 for the second.

Compared with “TATACATATGTATGCACACATACATACACATAGAAT [CACACA_site3480]”, “TATATTATTTAAAAAGTGCAGTTACAAGATGAACCT [GTGCAC_site9641]” is higher in “gcPBM binding intensity (ln)” value: 7.15 for the first, 8.2 for the second.

Going from “TTCAAACATATTAATTGTACATACAACAAAACCATG [XGTACX_site5149]” to “AATATATTTTAGAGTTTTATATATTTTATGCATATA [GTGCAC_negctrl_site710]”, the “gcPBM binding intensity (ln)” value falls from 7.13 to 7.

Compared with “ATATTATTTTATGCTACACACATTTTCTCTTATAAA [CACACA_site943]”, “TGGAAAATAAAGTACGCACACAAAAATTCTCTTCAT [CACACA_site2327]” is lower in “gcPBM binding intensity (ln)” value: 7.23 for the first, 7.16 for the second.

Compared with “AAAAAAAAAAAACACACACACACATTCAATATAAAA [CACACA_site40]”, “ATATGTATTTATGTATTTATGTATTTTTATATTTTT [CACACA_negctrl_site595]” is lower in “gcPBM binding intensity (ln)” value: 7.17 for the first, 6.85 for the second.

First: GGAATTTTTATTCGAAGTACTGTTGTGAGTAATAAA [XGTACX_site8599]
Second: TAAATGTTAAAATTCACACAAATATGTGCGGAATAT [CACACA_site5055]
The “gcPBM binding intensity (ln)” value of the first is higher: 7.11 for the first, 6.92 for the second.

First: TTTGACTAAATTAAATATTAAAGTATGGATTATTCT [CACACA_negctrl_site833]
Second: ACCCATTTGATAATAATGCACACCACATATATTTAT [CACACA_site3061]
The “gcPBM binding intensity (ln)” value of the first is lower: 6.66 for the first, 7.54 for the second.

Going from “TGCAAGGAACAACACACACACACATAAATGTATATA [CACACA_site8149]” to “ATATATAATATATACACACACATGTATATATAAATA [CACACA_site1968]”, the “gcPBM binding intensity (ln)” value rises from 7.11 to 7.27.

Compared with “AAGACCATATGAATAATGCACACGTTTTAAAATATT [CACACA_site2323]”, “TTTCCATTTTCTCTATGTACATAAAAATGAGATAAA [XGTACX_site5689]” is lower in “gcPBM binding intensity (ln)” value: 7.37 for the first, 7.17 for the second.

First: CACACGCACGGACACACACACAAAAAAAAAAAGAAA [CACACA_site6378]
Second: GTTTGGTGGTGTTTTGGTACGTACGGGGGTGTATGT [XGTACX_site1211]
The “gcPBM binding intensity (ln)” value of the first is lower: 7.72 for the first, 8.28 for the second.

First: AAATAAATCTTATGCACACAAATAATTAATGAAACA [CACACA_site5011]
Second: TCTTTGTACTTTCACATGTACACCCAAATGGAAATT [CACACA_negctrl_site1442]
The “gcPBM binding intensity (ln)” value of the first is higher: 8.12 for the first, 7.22 for the second.

First: ATATTTATGGAATATACACACATGTATAATTACATA [CACACA_site7045]
Second: AGGACTAATATTTGAACACACATATAATAAATACAT [CACACA_site6068]
The “gcPBM binding intensity (ln)” value of the first is higher: 7.01 for the first, 6.95 for the second.

First: ATTTTTTTTTCTTAATGTACATACCAAAAAGAAAGA [XGTACX_site5471]
Second: TATAATATATTTTAATGTACGTACATCCCGATTAAT [XGTACX_site7651]
The “gcPBM binding intensity (ln)” value of the first is higher: 7.45 for the first, 7.26 for the second.

“TTTGTCTGCATACGCACACACGTGTACCATCTTATG [CACACA_site4784]” and “TATTAATATATATGTTGTACAAGTTTTTTTTTTTTT [XGTACX_site5865]” are the same in “gcPBM binding intensity (ln)” value: 7.04 for the first, 7.04 for the second.

Going from “GATAAAATATGTTGCCGTACATATTCATATACTTAA [XGTACX_site4776]” to “TTCTATATTTCTTTTTGTACATATAAATTCAAATAA [XGTACX_site2476]”, the “gcPBM binding intensity (ln)” value rises from 7.01 to 7.64.

Compared with “ATATAAAATAATACATGTACATATTATATATATATA [XGTACX_site1082]”, “TATATACGCATTTTTATACACACTTGTTTTATAAAA [CACACA_site727]” is lower in “gcPBM binding intensity (ln)” value: 8.89 for the first, 7.28 for the second.

First: TATTTATATTCATAATGTACATTCAATTATTGTTTT [XGTACX_site4191]
Second: TTCTTTATTTTTTCTACACACATTATATATTCAAAG [CACACA_site5866]
The “gcPBM binding intensity (ln)” value of the first is lower: 7.11 for the first, 7.62 for the second.

Compared with “AAATATTAAATGACAAAAAAAAAAAAAAAAGGGGTT [CACACA_negctrl_site951]”, “TATTTTGAAAATAAAAGTACAAATTTTATATTTAAA [XGTACX_site3238]” is lower in “gcPBM binding intensity (ln)” value: 6.99 for the first, 6.78 for the second.

Compared with “TAAAAGTTCACCTGTACACACATATATATATGTACA [CACACA_site1707]”, “TTTTTTATTTTTTGTTATATTTATAATAATTTATGA [XGTACX_negctrl_site260]” is lower in “gcPBM binding intensity (ln)” value: 7.08 for the first, 6.68 for the second.

First: ATATATATATATGTAGTGCATTTTATATATAATATT
Second: TACTTTACACATATTTTTAATTATTCTGAATTCAAA [GTGCAC_negctrl_site253]
The “gcPBM binding intensity (ln)” value of the first is higher: 9.01 for the first, 7.06 for the second.

Going from “TACAGATATTTTATTTCACACATTTTATCATTTTCT [CACACA_site5701]” to “TTCAAAAAAGGAAAGTTGCACTTGATACGCTTATTA [GTGCAC_site9411]”, the “gcPBM binding intensity (ln)” value rises from 6.96 to 7.83.

From the supplement of paper PMC11417369
